# Patent US20150104450A1
# Residue numbers refer to the chain shown, from its start.
# B1: CTLA-4 Variant 1114 in Fc fusion format (Fc fusion)
# chain: MHVAQPAVVLASSRGRASFVCEYANPGKATEVRVTVLRQADSQVTEVCAATYMMGNEGTFLDDSICTGTTSGNQVNLTIQGLRAKDTGLYICQVELMYPPPYYLGIGNGTQIYVIDPEPCPDSDV[letters of human IgG1 Fc omitted]
# B2: CTLA-4 Variant 1299 in Fc fusion format (Fc fusion)
# chain: B1 chain with A24T, G27S, G58A, T70A, K85Q
# B3: CTLA-4 Variant 1321 in Fc fusion format (Fc fusion)
# chain: B1 chain with R16S, M54K, T70A, Q80R, K85S
# B4: CTLA-4 Variant 1315 in Fc fusion format (Fc fusion)
# chain: B1 chain with R16S, T70A, Q80R, K85S
# B5: CTLA-4 Variant 1115 in Fc fusion format (Fc fusion)
# chain: B1 chain with R16V, T70A, K85Q
# B6: CTLA-4 Variant 1227 in Fc fusion format (Fc fusion)
# chain: B1 chain with R16S, G27S, G58A, T70A, K85Q, Q93H
# B7: CTLA-4 Variant 1322 in Fc fusion format (Fc fusion)
# chain: MHVAQPAVVLASSRGIASFVCEYANPSKATEVRVTVLRQADSQVTEVCAATYMKGSELSTQDYPNCTGTSSGNQVNLTIQGLRAMDTGLYICQVELMYPPPYYLGIGNGTQIYVIDPEPCPDSDV[letters of human IgG1 Fc omitted]
# B8: CTLA-4 Variant 0943 in Fc fusion format (Fc fusion)
# chain: B1 chain with R16I, N25P, G58S, T70S, Q80R, K85L
# B9: CTLA-4 Variant 0788 in Fc fusion format (Fc fusion)
# chain: B1 chain with R16I, N25S, V32I, G58S, T70S, Q80R, K85V, Q93M, L104Q, N108S
# B10: CTLA-4 Variant 0636 in Fc fusion format (Fc fusion)
# chain: B1 chain with R16I, N25P, D41G, M54K, G58S, I65V, K85M, I115V
# B11: CTLA-4 Variant 0745 in Fc fusion format (Fc fusion)
# chain: B1 chain with R16T, N25S, N56G, G58S, T70S, K85M, Q93E, L104R, I106V
# B12: CTLA-4 Variant 0645 in Fc fusion format (Fc fusion)
# chain: B1 chain with R16T, N25P, G58L, T59A, L61P, I65V, K85M, Q93E
# B13: CTLA-4 Variant 0722 in Fc fusion format (Fc fusion)
# chain: B1 chain with R16V, N25P, S42G, G58S, T70S, K85M, Q93E, L104R
# B14: CTLA-4 Variant 1249 in Fc fusion format (Fc fusion)
# chain: B1 chain with G58P, T70M, K85V, Q93T, N108D
# B15: CTLA-4 Variant 0673 in Fc fusion format (Fc fusion)
# chain: MHVAQPAVVLASSRGIASFVCEYASPGKATEVRVTVLRQADSQVTEVCAAYMMGNELTFLGDSTCTGTSSGNQVNLTIQGLRAMDSGLYICKVELMYPPPYYLGIGNGTQIYVIDPEPCPDSDV[letters of human IgG1 Fc omitted]
# B16: CTLA-4 Variant 0701 in Fc fusion format (Fc fusion)
# chain: B15 chain with V44E, M53V, T64I, S86T, L103E, I114F
# B17: CTLA-4 Variant 1319 in Fc fusion format (Fc fusion)
# chain: B7 chain with N25P, S27G, K54M, S70A
# Target: cynomolgus monkey CD86 extracellular domain with FLAG 10xhis tag (cynomolgus monkey)
# Assay: SPR (Biacore 2000), CTLA-4-Fc amine-coupled to CM5, ligand ECD as analyte, monovalent affinity
# cynomolgus monkey CD86 extracellular domain with FLAG 10xhis tag (cynomolgus monkey), sequence (chain, as listed by the source limits assumed, form in doubt): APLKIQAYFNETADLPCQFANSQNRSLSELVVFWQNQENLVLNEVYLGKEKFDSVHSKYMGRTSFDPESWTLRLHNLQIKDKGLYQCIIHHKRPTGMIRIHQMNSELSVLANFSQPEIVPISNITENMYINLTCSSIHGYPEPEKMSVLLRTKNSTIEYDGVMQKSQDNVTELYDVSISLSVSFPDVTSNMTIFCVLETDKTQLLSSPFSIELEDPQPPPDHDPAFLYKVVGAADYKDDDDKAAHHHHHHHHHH
row,Kd [nM],Binder
1,1280,B1
2,1020,B2
3,960,B3
4,750,B4
5,1070,B5
6,1020,B6
7,330,B7

# Target: human CD86 extracellular domain with FLAG 10xhis tag (human)
# Assay: as above
# human CD86 extracellular domain with FLAG 10xhis tag (human), sequence (chain, as listed by the source limits assumed, form in doubt): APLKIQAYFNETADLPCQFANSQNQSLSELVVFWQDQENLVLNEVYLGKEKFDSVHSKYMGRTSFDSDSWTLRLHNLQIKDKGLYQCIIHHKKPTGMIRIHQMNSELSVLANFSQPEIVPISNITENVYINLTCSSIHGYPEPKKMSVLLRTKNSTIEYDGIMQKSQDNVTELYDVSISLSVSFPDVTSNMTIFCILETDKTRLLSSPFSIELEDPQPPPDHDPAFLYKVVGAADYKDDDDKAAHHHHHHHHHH
row,Kd [nM],Binder
1,1340,B1
2,1390,B2
3,1080,B3
4,1130,B4
5,1540,B5
6,1150,B6
7,526,B7

# Target: cynomolgus monkey CD86 extracellular domain with FLAG 10xhis tag (cynomolgus monkey)
# Assay: SPR (Biacore 2000), ratio of KD
row,fold-improvement in affinity over wild type CTLA-4 in Fc fusion format [fold],Binder
1,5,B1
2,6,B2
3,7,B3
4,9,B4
5,6,B5
6,6,B6
7,20,B7

# Target: human CD86 extracellular domain with FLAG 10xhis tag (human)
# Assay: SPR (Biacore 2000), ratio of KD
row,fold-improvement in affinity over wild type CTLA-4 in Fc fusion format [fold],Binder
1,5,B1
2,5,B2
3,6,B3
4,6,B4
5,4,B5
6,6,B6
7,12,B7

# Target: CD86 (B7-2) expressed on Raji cells (UniProt P42081)
# Assay: cell-based or functional assay
# UniProt P42081, sequence (P42081 24-329): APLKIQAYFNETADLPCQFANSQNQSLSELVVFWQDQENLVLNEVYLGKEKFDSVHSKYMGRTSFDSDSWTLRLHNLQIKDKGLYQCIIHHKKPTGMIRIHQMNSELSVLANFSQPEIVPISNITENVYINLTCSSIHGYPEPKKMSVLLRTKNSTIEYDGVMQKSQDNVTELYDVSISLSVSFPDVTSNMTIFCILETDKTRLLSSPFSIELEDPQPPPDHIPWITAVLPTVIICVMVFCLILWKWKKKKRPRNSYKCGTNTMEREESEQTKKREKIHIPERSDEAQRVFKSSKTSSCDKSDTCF
"Fold Improvement over Wild Type (SEQ ID NO: 35), Raji/Jurkat IC50 [fold]",Raji/Jurkat Dual Cell Assay IC50 (IL-2 release) [nM],Binder
56,0.54,B8
19,1.6,B9
24,1.26,B10
22,1.36,B11
24,1.24,B12
28,1.07,B13
43,0.69,B14
22,1.38,B15
19,1.61,B16
38,0.78,B17

# Target: CD80 (B7-1) expressed on Raji cells (UniProt P33681)
# Assay: cell-based or functional assay
# UniProt P33681, sequence (P33681 35-288): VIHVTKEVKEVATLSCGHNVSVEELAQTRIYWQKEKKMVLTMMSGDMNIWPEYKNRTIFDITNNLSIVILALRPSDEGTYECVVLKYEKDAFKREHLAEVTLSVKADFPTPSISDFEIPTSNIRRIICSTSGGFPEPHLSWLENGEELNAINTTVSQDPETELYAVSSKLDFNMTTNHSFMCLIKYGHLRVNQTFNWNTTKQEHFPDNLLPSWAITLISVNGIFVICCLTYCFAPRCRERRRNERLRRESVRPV
"Fold Improvement over Wild Type (SEQ ID NO: 35), Raji/Jurkat IC50 [fold]",Raji/Jurkat Dual Cell Assay IC50 (IL-2 release) [nM],Binder
56,0.54,B8
19,1.6,B9
24,1.26,B10
22,1.36,B11
24,1.24,B12
28,1.07,B13
43,0.69,B14
22,1.38,B15
19,1.61,B16
38,0.78,B17
